# Reference: the supplement of paper PMC3334620
# In all, about 33,000 sequences were measured (“E-score (-0.5 to 0.5)”: median about -0.012, highest 2% from about 0.29 on). The list shows a part of the results.
# Target: T1, Ybr033w (UniProt P38073)
# T1 sequence: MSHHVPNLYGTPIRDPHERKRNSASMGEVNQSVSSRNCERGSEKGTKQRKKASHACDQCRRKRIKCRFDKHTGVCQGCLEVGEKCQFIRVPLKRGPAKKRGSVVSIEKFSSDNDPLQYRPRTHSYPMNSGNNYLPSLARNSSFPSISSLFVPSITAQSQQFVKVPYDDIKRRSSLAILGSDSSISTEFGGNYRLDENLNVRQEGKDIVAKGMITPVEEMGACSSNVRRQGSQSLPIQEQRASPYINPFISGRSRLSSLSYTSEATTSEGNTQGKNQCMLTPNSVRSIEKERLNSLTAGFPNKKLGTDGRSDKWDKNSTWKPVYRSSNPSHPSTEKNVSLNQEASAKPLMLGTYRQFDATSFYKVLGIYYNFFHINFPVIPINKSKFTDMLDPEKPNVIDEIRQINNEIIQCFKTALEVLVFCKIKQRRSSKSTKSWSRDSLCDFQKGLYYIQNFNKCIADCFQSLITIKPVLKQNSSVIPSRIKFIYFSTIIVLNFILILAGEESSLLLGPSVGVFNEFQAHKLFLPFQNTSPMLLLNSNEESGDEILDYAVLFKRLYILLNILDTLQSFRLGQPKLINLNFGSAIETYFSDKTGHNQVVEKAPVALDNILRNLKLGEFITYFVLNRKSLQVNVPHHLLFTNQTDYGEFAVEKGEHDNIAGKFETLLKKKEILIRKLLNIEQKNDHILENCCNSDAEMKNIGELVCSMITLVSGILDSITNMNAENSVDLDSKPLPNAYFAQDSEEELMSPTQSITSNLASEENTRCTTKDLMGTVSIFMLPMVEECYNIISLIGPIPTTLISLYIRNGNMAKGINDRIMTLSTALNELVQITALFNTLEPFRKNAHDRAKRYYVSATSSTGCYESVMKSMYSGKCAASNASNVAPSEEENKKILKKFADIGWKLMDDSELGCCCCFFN
# Assay: PBM E-score (8-mer binding enrichment) (E-score (-0.5 to 0.5)); higher = stronger / more preferred TF binding; most listed sequences are background and not binding sites
# Conditions: protein concentration: 200 nM; construct: GST-full length
# How it was run: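 Using PURExpress in vitro transcription/translation, GST-tagged yeast transcription factors were made in full-length or DNA-binding-domain form. These were applied at about 100-200 nM to double-stranded universal all-10-mer Agilent arrays, and bound protein was detected with fluorescent anti-GST. Scans were normalised with masliner before the Universal PBM Analysis Suite assigned E-scores to ungapped eight-base words pooled with their reverse complements.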
row,Sequence,PBM E-score
1,GGAGTCAA,-0.0842
2,AGATTGTC,0.0249
3,CTATTTGA,0.227
4,AACTAGGA,0.098
5,CCCACCCA,-0.154
6,GAAGATAC,0.17
7,TAATGTCA,0.256
8,AGTATTAT,0.138
9,GCTAGGCC,-0.295
10,AACTATGG,-0.131
11,AGAACTTC,0.00762
12,CAAAAATG,0.157
13,AAAGGTTG,-0.131
14,CCTGACGC,-0.3
15,AGGACAGG,-0.113
16,CAGGAGCA,-0.118
17,GCGGCCGA,-0.114
18,CATCGTCC,-0.0871
19,AAGACTGC,-0.296
20,ACACAGCA,0.145
21,AGCGACTG,-0.132
22,TAAATAGA,0.0889
23,AGGGTTTG,0.078
24,CACCGCGC,-0.0895
25,AAGTTTAG,0.128

row,Sequence,PBM E-score
1,ATCACACG,-0.0221
2,ATTCTGAA,0.187
3,CGGTTTGA,-0.125
4,CGGTTTGC,-0.142
5,AAAGATTG,0.133
6,ACTTAGGG,0.0105
7,GGGCGGCA,-0.331
8,CTGAATCC,0.0548
9,AGCCTCAG,-0.0326
10,CCGAGCGG,-0.119
11,AGGAATCG,0.116
12,CATGGTGC,-0.156
13,GTCATTTA,-0.0316
14,ACCGCGAT,0.125
15,AAGATCCC,0.0772
16,AGGCGATC,-0.189
17,GGATGAGA,-0.229
18,ATTGGTGA,0.0383
19,CGTGGTGC,-0.178
20,ATTACACA,0.184
21,CCACATGC,-0.0219
22,GAGTTCAA,0.0343
23,GATCCTGC,-0.0731
24,AGAGTCCT,-0.113
25,GACCCAGA,-0.114

row,Sequence,PBM E-score
1,CACTTATG,-0.027
2,TACTGCCA,0.038
3,CCCGAAGC,-0.0315
4,TCTTCTCA,0.0537
5,CGCGGGAG,-0.286
6,GCGCCAAC,0.0829
7,ATTAAAAC,0.272
8,ACCAGAGT,-0.181
9,ATGCGCCG,-0.146
10,ACTACGAT,0.162
11,AGTGCGCA,0.0335
12,CAGGAGCC,-0.343
13,AGGTTGGC,-0.104
14,GTGGCACA,-0.228
15,AGTGTACC,-0.15
16,CTTTTTTC,0.217
17,GCCGGCGC,-0.0518
18,CTGGTTCC,-0.153
19,TAGCCCGA,-0.0462
20,CCGATGAA,0.0214
21,AGATTCTC,0.146
22,CTGATCAG,0.0373
23,AACAATAG,0.127
24,GCACTTGA,-0.0452
25,CGTATCAA,0.0866

row,Sequence,PBM E-score
1,ATCACGAC,-0.0763
2,TGATTCCA,0.135
3,ATGCGCTC,0.111
4,ACACCTTA,0.119
5,CACATGTC,-0.137
6,AATGCAGG,-0.0597
7,ATTGTCGA,0.0343
8,ACATAAGA,0.293
9,AACAGCAG,0.065
10,AGATGCAA,0.07
11,AACAGACA,0.196
12,CAATTCCG,0.0975
13,GACAGACC,-0.114
14,GGAGTCAC,-0.234
15,GCCTTTCA,-0.0076
16,ATGGCAGG,-0.115
17,GTCCGCAA,0.0112
18,AGACAAGG,-0.262
19,ACTATGAA,0.192
20,ATGGGCGA,-0.162
21,CGCAGCTC,-0.18
22,AGGTCGCG,-0.191
23,ACCTACCA,0.00172
24,CGAGAGGC,-0.372
25,AAATACTC,0.316

row,Sequence,PBM E-score
1,GCGTCTAA,-0.143
2,ATGGCGGG,-0.155
3,CGCTAGAA,-0.0487
4,CGGCAGCA,-0.191
5,GCGCTTAA,-0.0639
6,CGACTTCC,-0.263
7,TCGTGGCA,0.00883
8,ACCTGCTA,0.00309
9,AGTTGAGG,-0.0884
10,ACTTATCC,0.0884
11,AAGGTTTC,0.0283
12,GCCTGGAC,-0.199
13,AGAGAAGG,-0.0638
14,ATTGAATC,0.0535
15,AGACTAAG,-0.0468
16,ATTTCACG,0.105
17,GAGCTTGA,-0.123
18,CGGAACCC,-0.223
19,ATAACTTC,0.0786
20,CCCTTGAG,-0.0277
21,GCCACTGA,-0.115
22,GAAGGTTA,-0.0452
23,AAGGAGGA,-0.0927
24,CCATAACG,-0.104
25,GAGCCTGA,-0.173

row,Sequence,PBM E-score
1,GGAAAATA,0.414
2,AACGTCTA,0.0687
3,GACATACA,0.159
4,ACTAACTG,0.179
5,GCCAGAGA,0.00623
6,CATGAGGG,-0.195
7,GTAGAGGA,-0.167
8,CATTTGTC,0.0307
9,CATACTGA,0.212
10,ACCCTCGG,-0.139
11,GCTGTATA,0.0885
12,ACACTGGA,0.0728
13,AACGCCGT,0.0469
14,AATCAGCG,0.0406
15,CCTATTGC,0.0416
16,AAATACCT,0.171
17,GCATGGGA,-0.218
18,AAATTCTC,0.159
19,GATCCCAA,-0.0157
20,CGACCTGA,0.0111
21,AGTCTCGC,-0.135
22,CTAGGGCA,-0.302
23,TAGGTGAA,0.171
24,CTCCCCAG,-0.263
25,ATGTGTTA,0.163

row,Sequence,PBM E-score
1,TCTCTTCA,0.0417
2,AAAGCCTA,-0.0721
3,CGCGTAAA,0.169
4,GCGACCAA,0.0307
5,AACGGCAA,-0.0891
6,CATTCATA,0.187
7,ACCCTAAG,-0.0353
8,CCCGGTAC,-0.284
9,ATGCATAA,0.177
10,CCTGCACA,-0.187
11,CTTGGTGC,-0.116
12,GAATCCTA,0.0954
13,ATGCATCC,-0.214
14,CTTCCGCA,0.0786
15,CTATGGAA,0.0439
16,CGAGTGGC,-0.32
17,ACATATCA,0.221
18,CTGGAAAG,-0.189
19,CAAACATG,-0.017
20,ACCTTGGC,-0.0759
21,TGCGTCCA,-0.168
22,AGTTCGTA,0.113
